Results taken from the RNAGym collection of RNA variant scans (doi:10.1073/pnas.2313332121).
Variants at the background level are over-represented here.

B1: TPR 5TU (parent)
chain: GGAUCUUCUCGAUCUAACAAAAAAGACAAAUCUGCCACAAAGCUUGAGAGCAUCUUCGGAUGCAGAGGCGGCAGCCUUCGGUGGCGCGAUAGCGCCAACGUUCUCAACUAUGACACGCAAAACGCGUGCUCCGUUGAAUGGAGUUUAUCAUG

Variants of: B1
Assay: polymerase ribozyme fitness, log enrichment relative to wild type (log ratio); higher = more active; in vitro selection for triplet polymerase activity
Procedure, shortened: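 A heterodimeric triplet polymerase ribozyme had each of its subunits mutagenized by PCR into a library, which was transcribed. One round of in vitro selection, done in triplicate, annealed each library with a biotinylated primer, its partner subunit and triplets, then incubated it frozen at −7 °C before gel excision of extended constructs, streptavidin-bead capture and RT-PCR. Fitness is the logarithm of genotype enrichment relative to wild-type enrichment, based on Illumina sequencing of inputs and outputs and inverse-variance-weighted replicate averages. A base-2 logarithm is used, and genotypes were kept only with ≥10 input reads and ≥1 read per output.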

| Variant | polymerase ribozyme fitness (log ratio) |
| --- | --- |
| G74A A89C C95G U148A | ≤ -4.2 |
| G74A A89U C93G | ≤ -4.2 |
| G74A A89U C103G A138C | ≤ -4.2 |
| G74A A91C A115U G141A A147C U148G | ≤ -4.2 |
| G74A A91G A138U | ≤ -4.2 |
| G74A A91U | ≤ -4.2 |
| G74A A115C | -3.73 |
| G74A C75A G92A G133U G140U | ≤ -4.2 |
| G74A C79A G84A | ≤ -4.2 |
| G74A C79U C93A C103A | ≤ -4.2 |
| G74A C85A U90C G141A U148C | ≤ -4.2 |
| G74A C85G C87U C123A | ≤ -4.2 |
| G74A C87A A119G | ≤ -4.2 |
| G74A C114U | -3.85 |
| G74A G80U C93A C125A | ≤ -4.2 |
| G74A G83C G86A | ≤ -4.2 |
| G74A G84A A107G | ≤ -4.2 |
| G74A G88C C116G | ≤ -4.2 |
| G74A G88C C125A | ≤ -4.2 |
| G74A G92C | -2.84 |
| G74A G140U A142U A147U | ≤ -4.2 |
| G74A G141A | -2.42 |
| G74A U77A C87G | ≤ -4.2 |
| G74A U77C C85G A115U G140A | ≤ -4.2 |

| Variant | polymerase ribozyme fitness (log ratio) |
| --- | --- |
| G74A U78G C103G A106G A110G C131U C149A | ≤ -4.2 |
| G74A U82A G83C | ≤ -4.2 |
| G74A U82G G83A G86U G126C | ≤ -4.2 |
| G74A U127C A142G | ≤ -4.2 |
| G74C A91U A137G | ≤ -4.2 |
| G74C A147C | -4.06 |
| G74C C79U G88U U109A A119G G140C | ≤ -4.2 |
| G74C C87G | ≤ -4.2 |
| G74C C93A U151C | ≤ -4.2 |
| G74C C96U C123G | ≤ -4.2 |
| G74C C96U C129G G140U U148C | ≤ -4.2 |
| G74C C99U A142U U146A | ≤ -4.2 |
| G74C C105G C116G | ≤ -4.2 |
| G74C G81C | -3.94 |
| G74C G83A A106C C129G A142C | ≤ -4.2 |
| G74C G83A C95U G136A | ≤ -4.2 |
| G74C G86C A107C | ≤ -4.2 |
| G74C G100U A147U | ≤ -4.2 |
| G74U A107G U134A G141U | ≤ -4.2 |
| G74U A120U | ≤ -4.2 |
| G74U C75U G84C C93U G141A | ≤ -4.2 |
| G74U C76A | ≤ -4.2 |
| G74U C79G | ≤ -4.2 |
| G74U C93A | ≤ -4.2 |

| Variant | polymerase ribozyme fitness (log ratio) |
| --- | --- |
| G74U C96A C118U | -3.97 |
| G74U G80U U90G C129G | ≤ -4.2 |
| G74U G83C C105G | ≤ -4.2 |
| G74U G92A C131A G143A | ≤ -4.2 |
| G74U G94A C103A C105G A113U G133A G136A G141U | ≤ -4.2 |
| G74U G94C U127G A150G | ≤ -4.2 |
| G74U U77G A119U U135A U146C | ≤ -4.2 |
| C75A A89G A91U C99G G112A | ≤ -4.2 |
| C75A A89U G143C | ≤ -4.2 |
| C75A A91G A98U G100C G124C A142C | ≤ -4.2 |
| C75A A91G C93G A115C G140U | ≤ -4.2 |
| C75A A106U | ≤ -4.2 |
| C75A A142U | ≤ -4.2 |
| C75A C79G | ≤ -4.2 |
| C75A C85U C96A G117A | ≤ -4.2 |
| C75A C87A G94A C96A G141C | ≤ -4.2 |
| C75A C87U A113C | ≤ -4.2 |
| C75A C93G G141C | ≤ -4.2 |
| C75A C96G A107U A142U | ≤ -4.2 |
| C75A C96U | ≤ -4.2 |
| C75A G80C | ≤ -4.2 |
| C75A G81A | ≤ -4.2 |
| C75A G84A | ≤ -4.2 |
| C75A G84U | ≤ -4.2 |

| Variant | polymerase ribozyme fitness (log ratio) |
| --- | --- |
| C75A G86A A97G G136U | ≤ -4.2 |
| C75A G86U A91U A122G G136A | ≤ -4.2 |
| C75A G92A C103U A119U U134G G141A | ≤ -4.2 |
| C75A U90G U101G | ≤ -4.2 |
| C75A U135G | ≤ -4.2 |
| C75G A89C C95U G141A | ≤ -4.2 |
| C75G A91U | ≤ -4.2 |
| C75G A91U A106G G117C C131A U135C | ≤ -4.2 |
| C75G A107C | ≤ -4.2 |
| C75G A113U | ≤ -4.2 |
| C75G C76A G92U | ≤ -4.2 |
| C75G C85A | ≤ -4.2 |
| C75G C85U C95G C149G | ≤ -4.2 |
| C75G C85U U102G A119U U127C U135G A138U | ≤ -4.2 |
| C75G C87A | -3.89 |
| C75G C96A | -3.52 |
| C75G C96U | -3.61 |
| C75G G80C C93U A120C A147U | ≤ -4.2 |
| C75G G81C A89U | ≤ -4.2 |
| C75G G84A A107U A121U U151C | ≤ -4.2 |
| C75G G84U | ≤ -4.2 |
| C75G G86A C87A G92A U146G G152C | ≤ -4.2 |
| C75G G86C | ≤ -4.2 |
| C75G G86C C99U U104C A142U | ≤ -4.2 |

| Variant | polymerase ribozyme fitness (log ratio) |
| --- | --- |
| C75G G92U | -2.52 |
| C75G G124U G133U U145A | ≤ -4.2 |
| C75G G143C U151G | ≤ -4.2 |
| C75G U82A G84U U101A U139A G141C G143C | ≤ -4.2 |
| C75G U90A | ≤ -4.2 |
| C75U A107G A142G | ≤ -4.2 |
| C75U C85U A98G C103U U109A | ≤ -4.2 |
| C75U C85U A106C A122C U135A U145A | -3.69 |
| C75U C85U A119G G143A A147C | -3.76 |
| C75U C87A C125G G141A | ≤ -4.2 |
| C75U C96U U102G A107G | ≤ -4.2 |
| C75U C103G G126A | ≤ -4.2 |
| C75U C149A | ≤ -4.2 |
| C75U G83C | -1.13 |
| C75U G83C C99U G117A A121U A138G | ≤ -4.2 |
| C75U G83U C125A G128A A142U | ≤ -4.2 |
| C75U G88A | ≤ -4.2 |
| C75U G88C C118U A121U | ≤ -4.2 |
| C75U G88C U111G C129G U139G | ≤ -4.2 |
| C75U G92C | -1.11 |
| C75U G92C U109A U146G | -3.93 |
| C75U G92U C105G A115U | -4.17 |
| C75U G136A | 1.26 |
| C76A A91C G128C G143A | ≤ -4.2 |

| Variant | polymerase ribozyme fitness (log ratio) |
| --- | --- |
| C76A A91U C95U A107G G126A G133A | ≤ -4.2 |
| C76A A91U C125U G126C G143C | ≤ -4.2 |
| C76A A98U G136A U145A | 0.194 |
| C76A A137G | -1.07 |
| C76A A142U A147G | ≤ -4.2 |
| C76A C85A A121G | -2.03 |
| C76A C85G A98U C99G C114G | ≤ -4.2 |
| C76A C85G C87U G141C A142C | ≤ -4.2 |
| C76A C87G C93U | ≤ -4.2 |
| C76A C87G C103A G126A | ≤ -4.2 |
| C76A C87G U90A C103A U134A | ≤ -4.2 |
| C76A C87U | -2.16 |
| C76A C87U G92C | -2.48 |
| C76A C87U G140U | ≤ -4.2 |
| C76A C93G A137C G141U U145G | ≤ -4.2 |
| C76A C93G C132A | ≤ -4.2 |
| C76A G80C C105U U134G | ≤ -4.2 |
| C76A G83A U134G | -3.45 |
| C76A G84A G126A C149G | ≤ -4.2 |
| C76A G88U C96U A98G A107G A119C G124A | ≤ -4.2 |
| C76A G92U C93U A122U G141A U145C A150C | ≤ -4.2 |
| C76A G136A | 0.971 |
| C76A G143U | -3.02 |
| C76A U78C C87A G88C A120U | ≤ -4.2 |

| Variant | polymerase ribozyme fitness (log ratio) |
| --- | --- |
| C76A U82G | -1.94 |
| C76A U82G U146A | -0.356 |
| C76G A91U A115U | ≤ -4.2 |
| C76G A91U G117U | ≤ -4.2 |
| C76G A106G G133A | ≤ -4.2 |
| C76G C79A A89U G92A A137U G140U A142G G152U | ≤ -4.2 |
| C76G C85A C108U G143A | ≤ -4.2 |
| C76G C85G G92A A120C C129U | ≤ -4.2 |
| C76G C93G A97G | ≤ -4.2 |
| C76G C96G C105U C131A | ≤ -4.2 |
| C76G G80A C87A A119U | ≤ -4.2 |
| C76G G83C G92U C95G A113C A121U A137C | ≤ -4.2 |
| C76G G84A G100C | ≤ -4.2 |
| C76G G86U U109G G141U | ≤ -4.2 |
| C76G G92A | ≤ -4.2 |
| C76G G92U | ≤ -4.2 |
| C76G G143A | ≤ -4.2 |
| C76G U90C | ≤ -4.2 |
| C76G U101A A110U C118U G124A | ≤ -4.2 |
| C76G U101G A120U A150U | ≤ -4.2 |
| C76G U104G | ≤ -4.2 |
| C76G U134G | ≤ -4.2 |
| C76G U135C | ≤ -4.2 |
